Measurements published in PubChem BioAssay AID1466 (National Center for Advancing Translational Sciences (NCATS), 2008).
Hit rate of the full screen: of about 200,000 compounds, about 10 (0.005%) were called active. The inconclusive results got no clear call from the source; some entries with a clear call stand among them for comparison. Calls come from the whole dose curve; as a rule, active = well fitted inhibition curve with a large enough effect; inconclusive = small, poorly fitted or top-dose-only effect, or effect the other way, or another doubt; inactive = no such curve, though single readings can be large or run the other way. No potency is given beside an inconclusive call; the fits are too rough.
Potency is the fitted concentration of half-maximal effect; tags give direction and shape of the fitted curve.
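Throughout, for activity change, negative = inhibition: plate controls were uninhibited enzyme wells for no effect and no-enzyme background for full effect.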

What follows are compounds tested against Lysosomal alpha-glucosidase (Homo sapiens) (UniProt P10253) (assay: qHTS Assay for Inhibitors of Human alpha-Glucosidase as a Potential Chaperone Treatment of Pompe Disease). Conditions: purified human GAA, 4-MU-alpha-glucoside fluorescence; activity change, negative = inhibition: at 76.9 µM (top of the series) unless noted.
How it was run: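 Human enzyme at 4 nM with 400 uM 4-methylumbelliferyl-alpha-D-pyranoside, citrate/phosphate buffer pH 5.0, 0.005% Tween-20, 20 min at room temperature. Compounds up to 77 uM. 4-MU fluorescence (Ex 365/Em 440) read after NaOH/glycine stop; AC50 from Hill fit.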
For `CCC(=O)N1N=C(c2c(-c3ccccc3)c3cc(Cl)ccc3[nH]c2=O)CC1c1ccco1` (stereo not given), the Potency was inconclusive [activator, single point].
`COc1ccc2[nH]c(=O)c(CN(Cc3cccnc3)C(=S)NCC3CCCO3)cc2c1` (stereo not given) was tested, and the Potency was inconclusive [activator, full curve].
For `NS(=O)(=O)c1ccc(NC(=S)N2CCN(S(=O)(=O)c3ccc(F)cc3)CC2)cc1`, the Potency was inconclusive [inhibitor, partial curve].
With `Cc1nnc(SCC(=O)Nc2ccccc2)n1CCc1ccccc1` the Potency was inconclusive [inhibitor, full curve, poor fit].
`CC(=O)NC(Cc1cccc(F)c1)C(=O)NC1CCN(C(=O)c2cccc(C)c2)CC1` (stereo not given) was tested, and the activity change, negative = inhibition was inconclusive: 18.6% [activator].
For `Nc1c(-c2cccc(Cl)c2)cnn1-c1cccc(C(F)(F)F)c1`, the Potency was inconclusive [inhibitor, single point].
With `O=C(CSc1nnc(CNC(=O)c2c(F)cccc2Cl)o1)Nc1ccccc1` the Potency was inconclusive [inhibitor, full curve].
With `CC(C)CN(/C=N/c1sc2c(c1C#N)CCCCC2)CC(C)C` the Potency was inconclusive [activator, single point].
In the case of `CCN1C2=C(C(=O)CCC2)C(c2ccc(O)cc2)C2=C1CCCC2=O`, the activity change, negative = inhibition is reported as inconclusive: -17.8% [inhibitor].
With `C=CCNC(=O)CSc1nnc(-c2cccs2)o1` the Potency was inconclusive [inhibitor, single point].
For `CCCCNC(=O)CC1NCCNC1=O` (stereo not given), the activity change, negative = inhibition was inconclusive: 17.9% [activator].
`COc1ccc(-n2c(NN)nc3sc4c(c3c2=O)CCCC4)cc1` was tested, and the activity change, negative = inhibition was inconclusive: -16.6% [inhibitor].
For `NC(=O)CNC(=O)[C@@H]1CC2(CC(c3cccc(Br)c3)=NO2)CN1C(=O)c1ccc(Br)cc1` (stereo not given in full), the Potency was inconclusive [inhibitor, single point].
In the case of `COc1ccc(Cl)cc1N1C(=O)[C@@H]2C(c3cccc(OC)c3OC)=NO[C@@H]2C1=O`, the Potency is reported as inconclusive [inhibitor, single point].
With `COc1ccc(OC)c(S(=O)(=O)Nc2ccc(Oc3ccccc3)cc2)c1` the “activity change, negative = inhibition” value was inactive: -6.71%.
For `CC(=O)Nc1ccc(C(=O)/C=C/c2ccco2)cc1`, the activity change, negative = inhibition was inconclusive: 16.4% [activator].
In the case of `O=C1C2C3c4ccccc4C(Br)(c4ccccc43)C2C(=O)N1c1ccccc1O` (stereo not given), the Potency is reported as inconclusive [inhibitor, partial curve].
With `COCCN1Cc2cccc(C(=O)NC(C)c3cccs3)c2C1=O` (stereo not given) the Potency was inconclusive [inhibitor, single point].
`COC(=O)c1sc2ncccc2c1OCc1ccc(Cl)cc1` was tested, and the Potency was inconclusive [inhibitor, single point].
For `CCOc1cccc(C(=O)Nc2ccc3oc(Cc4ccc(Cl)cc4)nc3c2)c1`, the “activity change, negative = inhibition” value was inactive: -2.07%.
For `COc1ccc(N(CC(=O)Nc2ccc(S(=O)(=O)N3CCCCC3)cc2)S(C)(=O)=O)cc1OC`, the Potency was inconclusive [inhibitor, partial curve, poor fit].
`CCNc1nc(NCC)n2c(SC(C(=O)Nc3cc(C)ccc3OC)c3ccccc3)nnc2n1` (stereo not given) was tested, and the activity change, negative = inhibition was inconclusive: -15% [inhibitor].
In the case of `CC(=O)c1cccc(NC(=O)Cn2cc3c(n2)CCCC3)c1`, the Potency is reported as inconclusive [inhibitor, single point].
`COc1nccnc1NS(=O)(=O)c1ccc(NS(=O)(=O)c2ccc(NC(C)=O)cc2)cc1` was tested, and the Potency was inconclusive [inhibitor, single point].
With `CCOC(=O)C1=C(CC)Nc2ccccc2N=C1NC(=O)c1cccc(S(=O)(=O)N2CCCC2)c1` the Potency was inconclusive [inhibitor, single point].
With `CC(C)(C)NC(=S)NCc1ccc2c(c1)OCO2` the Potency was inconclusive [inhibitor, single point].
For `Fc1ccc(C2CC(c3ccco3)=Nc3ccccc3S2)cc1` (stereo not given), the Potency was inconclusive [inhibitor, partial curve, poor fit].
For `Cc1ccc(C2NC(=O)c3c(sc4c3CCN(C)C4)N2)s1` (stereo not given), the Potency was inconclusive [activator, single point].
`CN(C)c1ccc(/C=N/n2ncc3ccccc32)cc1` was tested, and the Potency was inconclusive [activator, single point].
With `COc1ccc(N2CC(C(=O)N/N=C/c3ccccc3)CC2=O)cc1` (stereo not given) the activity change, negative = inhibition was inconclusive: 12.8% [activator].
For `CCc1nc(SCC(=O)c2ccc3c(c2)OCCO3)c2ccccc2n1`, the Potency was inconclusive [inhibitor, single point].
In the case of `CCOC(=O)C(=O)Nc1nnc(Cc2ccc(OC)c(OC)c2)s1`, the Potency is reported as inconclusive [inhibitor, single point].
`CN(C)c1cc(NC(=O)CNC(C)(C)CC(C)(C)C)c2ccccc2n1` was tested, and the Potency was inconclusive [activator, partial curve, poor fit].
`COc1ccc(-n2nc(C(=O)NCC(=O)Nc3ccccn3)c3ccccc3c2=O)cc1Cl` was tested, and the activity change, negative = inhibition was inconclusive: 15.1% [activator].
With `CC1CCN(C(=O)CC2C(=O)Nc3c2c(=O)n(C)c(=O)n3Cc2ccccc2)CC1` (stereo not given) the Potency was inconclusive [inhibitor, single point].
In the case of `O=C(c1ccc(F)cc1)C1CCN(C(=O)c2ccncc2)CC1`, the Potency is reported as inconclusive [inhibitor, single point].
In the case of `CCN(CC)CC(=O)Nc1sc2c(c1C(=O)c1ccccc1OC)CCC2`, the Potency is reported as inconclusive [inhibitor, single point].
With `CCOc1ccc(S(=O)(=O)N2CCN(c3ccccc3F)CC2)c2cccnc12` the Potency was inconclusive [inhibitor, partial curve].
In the case of `Cc1cccc(OCC(O)CN2CCN(C3CCCCC3)CC2)c1` (stereo not given), the Potency is reported as inconclusive [inhibitor, partial curve, poor fit].
In the case of `COC(=O)c1nn(-c2ccccc2)ccc1=O`, the Potency is reported as inconclusive [inhibitor, single point].
